Molecular target: T1, IL-17A重组蛋白(抗原), IL-17 antigen with a C-terminal 6×His tag, expressed in E. coli BL21 (human, UniProt Q16552 24-155, limits assumed)
T1 sequence: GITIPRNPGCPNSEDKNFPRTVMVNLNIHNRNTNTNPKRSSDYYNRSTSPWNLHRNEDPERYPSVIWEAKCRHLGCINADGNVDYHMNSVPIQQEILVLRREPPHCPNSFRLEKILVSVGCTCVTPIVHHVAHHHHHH
Experiment: cell-based or functional assay

IC50, 阻断Human IL-17A蛋白激活293F-IL-17RA-IL-17Rc-ACT1-NFκB-Luc报告基因细胞株: 0.589 nM
B1: 串联抗体G4-H10 (IL-17A特异性串联抗体, 2-G4-(GGGGS)3-3-H10-hinge-human IgG1 Fc) (Fc fusion)
chain: QVQLVESGGGLVQPGGSLRLSCAASGEKLDYFAIGWFRQAPGKEREVVSCVTSSGSSTNYLSSVKDRFTISIDNAKNTVYLQMNSLKPEDTAIYYCASTILLCSDYISAFGTWGQGTQVTVASGGGGSGGGGSGGGGSEVQLVESGGGLVQPGGSLRLSCAASGFSIHIYAMGWYRQAPGKQRELVATITRGGVTNNADSVKGRFTISRDNAKNTAYLQMNSLKPEDTAVYYCNAGGTNGGYWGQGTQVTVSS[in this place human IgG1 Fc]
